Experimental data published in the CheMixHub viscosity set.
Where “and” joins values, the source holds several entries; their conditions need not be identical. Equal values may be shown once. The source gives many values for each of these; only a part stands here.

CCCCn1cc[n+](C)c1.F[P-](F)(F)(F)(F)F
viscosity
Conditions	298.15 K	299.15 K	301.15 K	302.15 K	303.15 K	304.15 K	305.15 K	307.15 K
101 kPa	278.6 mPa·s and 254.3 mPa·s	259 mPa·s	232 mPa·s	218.4 mPa·s	206 mPa·s	194.8 mPa·s	183.8 mPa·s	164.5 mPa·s
101.3 kPa	270 mPa·s	–	–	–	–	–	–	–
